Experimental data from the supplement of paper PMC9174493.
Some of the results follow. Single values of this set are uncertain. Values with irradiation are relative to irradiated vehicle.

Tests used:
A549-Dual [1] = assay: NF-kB reporter (SEAP) activity, viability-corrected, relative to vehicle (fold change vs vehicle); higher = more activation of STING-IRF / NF-kB immune response reporter; conditions: 10 µM
A549-Dual [2] = assay: ISRE reporter (Lucia luciferase) activity, viability-corrected, relative to vehicle (fold change vs vehicle); higher = more activation of STING-IRF / NF-kB immune response reporter; conditions: 10 µM
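Throughout, for NF-kB reporter (SEAP) activity, viability-corrected, relative to vehicle: viability correction based on the alamar blue assay, with concentrations leaving 10% survival or less dropped.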

SMILES | NF-kB reporter (A549-Dual [1]; irradiation: 8 Gy/4 fr) | NF-kB reporter (A549-Dual [1]; irradiation: none) | ISRE reporter (A549-Dual [2]; irradiation: 8 Gy/4 fr) | ISRE reporter (A549-Dual [2]; irradiation: none)
CC(=O)OCC(=O)C12N=C(C)OC1CC1C3CCC4=CC(=O)C=CC4(C)C3C(O)CC12C (stereo unspecified) [Deflazacort] | 0.372 | 0.615 | 0.0729 | 0.251
CC(C)=CCC/C(C)=C/C=O [Citral] | 1.17 | 0.962 | 1.09 | 0.582
CC12CC3(O)OC(O1)C1(COC(=O)c4ccccc4)C3CC21OC1OC(CO)C(O)C(O)C1O (stereo unspecified) [Paeoniflorin] | 0.756 | 0.563 | 0.87 | 0.557
C/C=C1/C2C=C(C)CC1(N)c1ccc(=O)[nH]c1C2 (single isomer, unassigned; (-)) [(-)-Huperzine A (HupA)] | 1 | 1.14 | 0.842 | 0.618
CC(NCCc1ccc(O)cc1)C(O)c1ccc(O)cc1.Cl (stereo unspecified) [Ritodrine HCl] | 1.29 | 0.601 | 1.49 | 0.711
NC(CC(=O)N1CCn2c(nnc2C(F)(F)F)C1)Cc1cc(F)c(F)cc1F (stereo unspecified) [Sitagliptin] | 0.619 | 0.91 | 0.613 | 0.633
CC(C)(O)c1ccccc1CCC(SCC1(CC(=O)[O-])CC1)c1cccc(/C=C/c2ccc3ccc(Cl)cc3n2)c1.[Na+] (stereo unspecified) [Montelukast Sodium] | 0.57 | 0.498 | 0.762 | 0.508
Oc1cc(O)c2c(c1)OC(c1ccc(O)c(O)c1)C(OC1(c3ccc(O)c(O)c3)Oc3cc(O)cc(O)c3C(O)C1O)C2 (stereo unspecified) [Proanthocyanidins] | 0.776 | 0.633 | 0.755 | 0.819
CCCN(CCC)S(=O)(=O)c1ccc(C(=O)O)cc1 [Probenecid] | 0.913 | 0.673 | 0.742 | 0.664
CO/N=C1\CC2(CC3CC(C/C=C(\C)CC(C)/C=C/C=C4\COC5C(O)C(C)=CC(C(=O)O3)C45O)O2)OC(/C(C)=C/C(C)C)C1C (stereo unspecified) [Moxidectin] | 1.13 | 1.7 | 1.02 | 3.36
CO/N=C(\C(=O)NC1C(=O)N2C(C(=O)[O-])=C(CSc3nc(=O)c([O-])nn3C)CSC12)c1csc(N)n1.[Na+].[Na+] (stereo unspecified) [Ceftriaxone Sodium Trihydrate] | 0.792 | 0.851 | 0.73 | 0.793
COc1cc(C(C)=O)ccc1OCCCN1CCC(c2noc3cc(F)ccc23)CC1 [Iloperidone] | 0.63 | 0.767 | 0.819 | 1.01
CC(C)n1c(/C=C/C(O)CC(O)CC(=O)[O-])c(-c2ccc(F)cc2)c2ccccc21.[Na+] (stereo unspecified) [Fluvastatin Sodium] | 1.71 | 2.39 | 0.352 | 1.9
CC(CCC(=O)O)C1CCC2C3C(O)CC4CC(O)CCC4(C)C3CC(O)C12C (stereo unspecified) [Cholic acid] | 1.14 | 0.708 | 1.11 | 0.517
